# Results taken from PubChem BioAssay AID485313 (National Center for Advancing Translational Sciences (NCATS), 2010).
# In all, about 320,000 compounds went through this assay and about 7,600 (2.4%) were called active. The inconclusive results got no clear call from the source; some entries with a clear call stand among them for comparison. Calls follow the shape of the dose curve; as a rule, active = well fitted activation curve with a large enough effect; inconclusive = small, poorly fitted or top-dose-only effect; inactive = no such curve, though single readings can be large or run the other way. Potencies of inconclusive entries are left out as doubtful fits.
# Assay: qHTS Assay for NPC1 Promoter Activators; also: nearly all actives have a fitted effect of over 60% in size;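 as to activation: reporter is driven by a mutant NPC1 promoter; % of control where 0% means no effect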
# Settings: Huh7 NPC1 promoter luciferase reporter, 24 h; series mostly up to 9.22 µM; activation: at the top concentration
# Method in brief: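 Readout is luciferase luminescence, reflecting NPC1 promoter activation in stably transfected Huh7 cells after 24 h compound exposure at 37 °C in reduced-serum medium with 10% FBS.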
# Potency is read from the fitted curve at half-maximal effect; tags tell the direction and shape of the fitted curve.
Structure (SMILES),Potency,activation
[O-]/[N+](=C\C=C\c1ccccc1)c1ccccc1,active: 2.51 µM,–
Cc1ccc(NC(=O)CCc2c(C)nn(-c3ccc(N4CCCCC4)nn3)c2C)cc1,active: 1.58 µM,–
CC1(C)Oc2ccc3ccc(=O)oc3c2/C(=C/NNC(N)=S)C1=O,–,inactive: -6.02%
CC(=O)Nc1ccc(S(=O)(=O)Oc2cccc(N3C(=O)C4CC=CCC4C3=O)c2)cc1 (stereo not given),–,inactive: 0.409%
Cc1ccc(-n2c(C)cc(C(=O)CSc3nnnn3C)c2C)cc1,active: 0.708 µM,–
O=C(/C=C/c1ccccc1[N+](=O)[O-])Nc1cccnc1,"inconclusive [activator, partial curve]",–
O=C(COC(=O)Cc1cccc(C(F)(F)F)c1)NCc1ccco1,–,inactive: 0.799%
Cc1ccc(S(=O)(=O)CCC(=O)N(CCN2CCOCC2)c2nc3ccccc3s2)cc1,"inconclusive [activator, partial curve]",–
Oc1ccc(Br)cc1C=Nc1cccn2cc(-c3ccccc3)nc12,"inconclusive [activator, partial curve]",–
CC(=O)c1ccc(NC(=O)CCc2nnc3ccc(NCc4ccco4)nn23)cc1,"inconclusive [activator, single point]",–
c1ccn2c(SCc3ccc4c(c3)OCCO4)nnc2c1,"inconclusive [activator, partial curve]",–
COc1ccc(OCC(=O)N2CCC3(CC2)CC(=O)c2ccccc2O3)cc1,–,inactive: -0.694%
Cn1cccc1C(=O)C(=O)Nc1cc(Cl)cc(Cl)c1,"inconclusive [activator, single point]",–
Nc1c(C(=O)Nc2ccccc2)sc2nc(-c3cccnc3)ccc12,"inconclusive [activator, single point]",–
C(=N\Nc1nc(-c2ccccc2)cs1)/c1ccncc1,active: 3.16 µM,–
NC(=O)c1ccc(-c2ncc(-c3ccccc3)o2)cc1,active: 0.282 µM,–
O=C(Nc1nnc(C2CC2)s1)c1cc2ccccc2o1,active: 2.82 µM,–
O=C(OCc1ccc(Br)cc1)c1cccc(-c2nnc(-c3ccccc3)o2)c1,"inconclusive [activator, partial curve]",–
N/C(Cc1cccs1)=N\OC(=O)COc1ccc(Br)cc1Cl,"inconclusive [activator, single point]",–
O=C(Nc1ccc(Nc2ccccc2)cc1)c1ccc(Br)o1,–,inactive: 29.6%
Nn1c(SCC(=O)Nc2cc(C(F)(F)F)ccc2Cl)nncc1=O,"inconclusive [activator, single point]",–
COc1ccc2c(c1OC)C(=O)N1c3ccccc3COC21 (stereo not given),active: 3.55 µM,–
COCC(C)n1c(C)cc(C(=O)CSc2nnnn2C2CCCC2)c1C (stereo not given),"inconclusive [activator, partial curve]",–
COc1cc2c(C)nc3c(cnn3-c3ccccc3)c2cc1OC,"inconclusive [activator, single point]",–
CCn1cnc2cc(NCc3nc4ccccc4n3Cc3ccccc3)ccc21,active: 3.55 µM,–
O=C(Nc1ccc(Br)cc1F)c1ccc2c(c1)OCCO2,active: 0.282 µM,–
CCc1ccc(NC(=O)c2noc3c2CCC3)cc1,active: 1 µM,–

Structure (SMILES),Potency,activation
Nc1ccccc1-c1nc2ccccc2[nH]c1=O,"inconclusive [activator, single point]",–
COc1ccc2oc(=N)c(C(=O)Nc3ccc(F)cc3)cc2c1,"inconclusive [activator, single point]",–
Oc1ccc2ccccc2c1N=Nc1ccccc1F,"inconclusive [activator, single point]",–
Cc1nc(N2CCN(Cc3ccc(Cl)cc3)CC2)c2oc3ccccc3c2n1,–,inactive: -5.53%
CCCCN1C(=O)/C(=C/C=C2\SCCN2C)SC1=S,"inconclusive [activator, partial curve]",–
COc1ccc(Nc2nc(-c3cccnc3)cs2)c(OC)c1,active: 3.55 µM,–
O=C(Nc1ccncc1)Nc1ccc(Br)cc1Cl,–,inactive: 0.427%
COCCN(C(=S)Nc1ccc(OC)cc1)C(C)c1cccs1 (stereo not given),–,inactive: -2.17%
CCOC(=O)c1ccc(NC(=O)Nc2ccn(C)n2)cc1,"inconclusive [activator, partial curve]",–
N/C(=N\OC(=O)/C=C/c1ccccc1)c1ccncc1,active: 3.16 µM,–
O=C(Nc1cccnc1)Nc1ccc2c(c1)OCO2,"inconclusive [activator, partial curve]",–
Cc1ccc(Nc2ncccc2C(N)=O)cc1,active: 3.55 µM,–
Cc1cccc(NC(=S)c2nc3ccccc3s2)c1,"inconclusive [activator, partial curve]",–
C/C(=N\NC(=O)c1ccco1)c1ccc(NC(=O)c2ccccc2)cc1,"inconclusive [activator, partial curve]",–
COc1cccc(CNc2cnc3ccccc3c2)c1O,active: 1.58 µM,–
CCn1c(C)nc2cc(C(=O)N/N=C(\C)c3ccccc3O)ccc21,"inconclusive [activator, partial curve]",–
COc1ccc(OCc2cc(C(=O)NC(C)Cn3cncn3)no2)c(Cl)c1 (stereo not given),"inconclusive [activator, partial curve]",–
CCc1ccccc1Nc1nc(N)nc(COC(=O)c2cccn2C)n1,"inconclusive [activator, single point]",–
Cn1ccs/c1=N\C(=O)Nc1cccc(Cl)c1,active: 0.891 µM,–
Cn1ccsc1=NC(=O)c1cccc(OC(F)F)c1,active: 3.55 µM,–
CC12CC3CC(C)(C1)CC(C(=O)NCc1ccco1)(C3)C2,"inconclusive [activator, single point]",–
O=C(Nc1ccc2c(c1)CCC2)c1cc(F)cc(F)c1,active: 2.51 µM,–
CN(C)c1ccc(NC(=O)Nc2ccc3c(c2)nnn3C)cc1,"inconclusive [activator, single point]",–
COc1ccc(/C(N)=N/OC(=O)Cc2cccs2)cc1,"inconclusive [activator, partial curve]",–
Cc1cccc(NC(=O)c2ccc3nccnc3c2)n1,"inconclusive [activator, single point]",–
O=C(NC(=S)Nc1ncc(Br)cc1Br)c1ccccc1,"inconclusive [activator, single point]",–
NC(=O)C1(N2CCCCC2)CCN(Cc2ccccc2Cl)CC1,–,inactive: 0.0156%

Structure (SMILES),Potency,activation
CCOc1ccc2nc(N3CCOCC3)nc(C)c2c1,active: 3.98 µM,–
C/C(=N\NC(=O)c1cc(Cl)ccc1O)c1ccc(Br)s1,active: 3.98 µM,–
O=C(OCC#CCSc1nnc(-c2cccc3ccccc23)o1)c1ccco1,inactive,–
COc1cc(/C=N/O)ccc1OCc1ccc([N+](=O)[O-])cc1,active: 2.51 µM,–
COc1ccc(-n2ncc3c(NCCCn4ccnc4)ncnc32)cc1,"inconclusive [activator, partial curve]",–
CCc1nnc(NC(=O)CSc2nc3c(cc2C#N)CCC3)s1,active: 2.82 µM,–
C/C(CC(=O)Nc1cc(C)ccn1)=N\NC(=O)C(=O)Nc1cccc(C)c1,"inconclusive [activator, partial curve]",–
COc1cc(Cl)ccc1OCc1cc(C(=O)NCCCN2CCCC2=O)no1,–,inactive: 2.99%
CCCCc1cc(=O)oc2cc(OCC(=O)N3CCOCC3)ccc12,"inconclusive [activator, single point]",–
CSc1ccc(C2Nc3cccc4cccc(c34)N2)cc1,"inconclusive [activator, single point]",–
COCCSc1nnc(NC(=O)c2ccc3c(c2)OCO3)s1,"inconclusive [activator, single point]",–
COc1cc(NC(=O)c2csc(N)n2)cc(C(=O)Nc2cccc(C(F)(F)F)c2)c1,–,inactive: 20.8%
COc1ccc2nc(NC(C)=O)sc2c1,active: 2.24 µM,–
Fc1cc(F)c2nc(N3CCCCC3)sc2c1,"inconclusive [activator, single point]",–
CCc1nnc(NC(=O)Nc2ccc(OC)cc2)s1,"inconclusive [activator, single point]",–
CS(=O)(=O)N1CCN(c2ccc(NC(=O)c3cc4ccccc4o3)cc2)CC1,"inconclusive [activator, full curve, poor fit]",–
CCn1nnnc1SCC(=O)c1ccc(C)cc1,"inconclusive [activator, single point]",–
CCOc1ccc2nc(/N=C/c3nc(-c4ccc(Br)cc4)oc3O)sc2c1,–,inactive: 8.82%
O=[N+]([O-])c1ccc(-c2cn3c(n2)CCC3)cc1,"inconclusive [activator, partial curve]",–
COc1ccc(-c2cc(=O)c3c(O)cc(O)cc3o2)cc1,"inconclusive [activator, single point]",–
O=C(Cc1cccs1)NCc1ccccc1Br,"inconclusive [activator, partial curve]",–
CCOc1ccc(CCNC(=O)c2cccc(S(=O)(=O)N3CCCCC3)c2)cc1OCC,–,inactive: -2.06%
Cc1ccc(N/C=C/C(=O)c2ccccc2)cc1Br,active: 3.98 µM,–
CCSC1=N/C(=C\c2ccc3c(c2)OCO3)C(=O)S1,–,inactive: -0.747%
COc1ccc2cc(CCC(C)=O)ccc2c1,"inconclusive [activator, partial curve]",–
O=C(O)c1ccc(COc2ccc3ccccc3c2)o1,"inconclusive [activator, partial curve]",–
